From the supplement of paper PMC3334620
The full ranking holds about 33,000 sequences; the median of “E-score (-0.5 to 0.5)” is about -0.035, and the highest 2% start at about 0.35. Some of the results follow.

Target: T1, Pdr3 (UniProt P33200)
T1 sequence: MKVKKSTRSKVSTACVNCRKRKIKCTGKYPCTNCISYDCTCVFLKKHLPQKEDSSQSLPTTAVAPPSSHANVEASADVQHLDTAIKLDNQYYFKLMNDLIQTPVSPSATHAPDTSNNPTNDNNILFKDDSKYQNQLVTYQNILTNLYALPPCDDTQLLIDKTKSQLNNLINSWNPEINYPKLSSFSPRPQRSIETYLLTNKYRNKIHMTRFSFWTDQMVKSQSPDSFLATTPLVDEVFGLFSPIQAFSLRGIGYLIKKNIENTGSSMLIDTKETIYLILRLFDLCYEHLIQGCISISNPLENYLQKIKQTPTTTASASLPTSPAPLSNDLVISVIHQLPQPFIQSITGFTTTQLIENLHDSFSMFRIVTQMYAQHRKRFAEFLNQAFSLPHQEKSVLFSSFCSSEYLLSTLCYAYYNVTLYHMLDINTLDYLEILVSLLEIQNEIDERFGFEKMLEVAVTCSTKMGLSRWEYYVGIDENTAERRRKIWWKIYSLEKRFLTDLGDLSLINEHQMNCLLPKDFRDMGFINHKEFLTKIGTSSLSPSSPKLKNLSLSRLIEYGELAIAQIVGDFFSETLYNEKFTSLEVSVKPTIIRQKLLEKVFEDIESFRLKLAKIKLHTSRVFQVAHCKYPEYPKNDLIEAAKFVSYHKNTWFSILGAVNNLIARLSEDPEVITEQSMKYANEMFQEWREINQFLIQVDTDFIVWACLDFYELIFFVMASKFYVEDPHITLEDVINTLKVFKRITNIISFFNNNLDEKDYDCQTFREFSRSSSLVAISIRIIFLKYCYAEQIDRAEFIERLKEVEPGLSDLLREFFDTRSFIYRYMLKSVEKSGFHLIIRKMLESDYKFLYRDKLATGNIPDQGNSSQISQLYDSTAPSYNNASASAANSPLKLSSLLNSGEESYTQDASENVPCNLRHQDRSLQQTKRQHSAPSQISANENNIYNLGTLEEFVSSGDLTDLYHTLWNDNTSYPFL
Assay: PBM E-score (8-mer binding enrichment) (E-score (-0.5 to 0.5)); higher = stronger / more preferred TF binding; most listed sequences are background and not binding sites
Details: protein concentration: 200 nM; construct: GST-full length
Description: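 Universal 'all 10-mer' protein binding microarrays (Agilent AMADID 015681) probed with GST-tagged S. cerevisiae TFs (full-length or DBD) made by in vitro transcription/translation (PURExpress), about 100-200 nM. Bound TF was detected with fluorescent anti-GST. Each ungapped 8-mer (which stands for itself and its reverse complement) is scored by the PBM enrichment score (E-score), a modified Wilcoxon-Mann-Whitney statistic from -0.5 to +0.5, computed with the Universal PBM Analysis Suite. Scale: above 0.35 generally sequence-specific binding.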

Sequence | PBM E-score
ACGATAAG | 0.051
AATTCTAC | -0.126
AAAAAGAG | -0.192
CGGGACGA | 0.239
ACTTAAGC | -0.0629
CCAGGGCC | -0.118
GGAATGGA | 0.212
AGACCGAG | 0.146
GCGAATAA | 0.0522
AAGTCCAG | -0.0628
CTTCTGAA | 0.0257
ACATGGCG | 0.0149
AAGTTAAA | -0.216
ATAGGTAG | -0.23
CCGCGACG | 0.138
GCTTGCAA | -0.0506
TAATCTCA | -0.1
ACGGGCTA | -0.0674
CAGCACCC | -0.215
GCTGGCAC | -0.282
ATTTGTCC | 0.161
ATCAAGAG | 0.0435
CTCACCAA | 0.136
ACGTGCGA | -0.0586
ATGGAATC | 0.205

Sequence | PBM E-score
ATTGGACC | -0.0639
CTGATGCC | 0.0333
CTTTCTCC | 0.0502
CTAATCAC | 0.0587
ACTACATA | -0.196
AACCGCAA | 0.0963
GTCTCTAA | -0.0701
CCAAAGCC | -0.0696
ACACAGTC | -0.0508
CCGTCTAG | 0.178
CTCATGGC | 0.0503
TAGCTATA | -0.197
GCCCTAAC | 0.13
AAGGACTG | -0.168
GTTCCCGA | 0.267
CAAAAGGC | -0.131
TTAAACAA | -0.279
CATCCGGG | 0.261
CATTTTCC | 0.221
GGCACGCC | -0.111
GTATACGA | -0.0247
AATGAACA | -0.0284
CGGCCACA | 0.199
GCATGCTA | -0.115
ACGACCCA | -0.0346

Sequence | PBM E-score
ATGTATAC | 0.0336
CATTGATC | 0.13
GAACTTTA | -0.0456
CGGGCCTA | 0.0856
GACGAGCC | -0.031
ACCCGGAT | 0.31
ACACGGCG | 0.152
CGGACCAG | 0.278
CAAAGCGC | 0.0784
ATGAATGG | 0.231
CGCAATTC | 0.223
ACGCGTAA | -0.159
AGGCTCAA | -0.222
AACCTCAT | -0.0356
GCAACAGA | -0.0927
ATCCCGCC | 0.322
ACCACAGG | -0.238
GGCTATAA | -0.0703
AGATAGAT | -0.22
ATCTCACG | 0.0453
ATCCTTAG | -0.138
CTGTAAAC | -0.251
TAGAGGGA | -0.239
CGTATACC | -0.159
CTTCCCTC | -0.0815

Sequence | PBM E-score
ACCTCCCT | -0.106
ACGCCACA | -0.0473
CGGCATCC | 0.266
AAGCAGGT | -0.0364
ACCGGAGC | 0.356
CGAATACG | 0.0296
CAACCTCG | 0.0325
GCCTGACA | -0.08
CTATCTAC | -0.109
TCTGTGCA | -0.0818
TACCAACA | -0.164
TGGAGAAA | -0.126
CCAATCTA | -0.0105
AATCCCGC | 0.333
AGTAAGTC | -0.11
AGTCGTCA | -0.339
GGCAAAAA | 0.215
AAAACGCG | 0.161
ACATCTCT | -0.166
AACATTTG | -0.13
CTAGCTTC | 0.0676
CGCCAGTA | 0.00965
GATCGTAC | 0.121
AAGGTCCG | 0.327
CAGTTTCC | 0.253

Sequence | PBM E-score
GATTCGCC | -0.0193
TGGCCAAA | -0.152
ACCACCTC | 0.11
CCCTACAA | -0.164
GGAGGGTA | 0.0832
CGTCGAAA | 0.0208
GCTTCAAC | -0.0825
GGCCGAAC | 0.068
CCCTCCGG | 0.265
GCATGTCA | -0.0508
CAACCGTG | -0.0744
CCCACATC | -0.167
ACGAGTAC | -0.0719
AGAGGAGG | -0.337
ATACGCCA | -0.0314
CACGCCCA | 0.0821
AAGGAATA | -0.0227
CGGCGGGA | 0.312
CCAAAGAG | -0.0866
TCGTATAA | 0.0828
AAATAACC | -0.0781
AATTTTGG | 0.0167
GAGGTGAA | -0.0763
GAGAGCAA | 0.0278
AGCTTTAA | -0.0198

Sequence | PBM E-score
GAATCGTA | -0.043
AGATTACA | -0.107
GCTAAACC | -0.128
CCTCAGCC | -0.181
GGTCAACC | 0.0182
GAGCCGCC | 0.153
CTGTCCCA | -0.156
CTCGTCAA | -0.18
AGTTATAC | 0.0638
ACCGAGAC | 0.0101
ACTAAGAC | -0.224
GTTCGCGA | 0.148
CAGGACGG | -0.0667
ACAGTGCT | 0.0599
ATCTCAAT | -0.158
ACGCTAAT | 0.073
TAACCTTA | -0.199
AATATACA | 0.0145
CGTGTTCA | -0.0434
GGTGGTGA | -0.032
ATTTAAAC | 0.0115
AGTCACTG | -0.0973
CTCCTTAA | -0.134
GGCTGGAC | -0.109
ACGAACTC | 0.0779

Sequence | PBM E-score
ATATGTCG | 0.0248
CTCTTGCA | -0.186
TAATGGCA | -0.0322
ATCTCACC | 0.159
ACCTTGAC | -0.0123
ACATCCTC | -0.0656
ACCATGAT | -0.178
CTAGTCAA | -0.196
CGGCCAAG | 0.088
GGGTAGAC | -0.106
TTGGCAAA | -0.121
GCTCAAGA | -0.178
CTGTATTC | 0.124
GGTGTGTA | -0.238
CCGAATCC | 0.336
CCGATGAG | 0.0296
CCATTGCC | 0.035
CGCTCGCC | 0.129
CTCCGCGA | 0.258
AGTCTCCA | -0.222
ACTGGATC | 0.0322
ATACTGCA | 0.188
